From publication PMC12820563, “FoxP3 forms a head-to-head dimer in vivo and stabilizes its multimerization on adjacent microsatellites”
The list shows a part of the results.

These sequences were tested against T1, MBP-FoxP1dN (Mus musculus, UniProt P58462 326-579) (assay: PD-seq (MBP pull-down with sequencing); 20 mM Tris-HCl pH 7.5, 100 mM NaCl, 1.5 mM MgCl2, 0.4 uM protein, 0.1 uM dsDNA library, 30 min, room temperature, amylose pull-down; high values mean tight binding). Settings: protein: recombinant; tags: His6-MBP; chain copies: 2; dsDNA, one strand shown.
T1 sequence: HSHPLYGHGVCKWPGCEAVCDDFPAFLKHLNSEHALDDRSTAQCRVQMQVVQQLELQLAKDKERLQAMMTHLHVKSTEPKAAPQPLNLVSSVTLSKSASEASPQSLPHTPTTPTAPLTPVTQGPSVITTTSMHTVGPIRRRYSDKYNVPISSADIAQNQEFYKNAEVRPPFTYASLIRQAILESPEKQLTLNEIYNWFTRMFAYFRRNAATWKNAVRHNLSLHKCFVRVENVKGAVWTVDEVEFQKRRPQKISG
Outline: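 In Tris pH 7.5 buffer with NaCl and MgCl2, 0.4 µM His6-MBP-tagged mouse FoxP3 or FoxP1 fragment lacking the N-terminus, from E. coli, met 0.1 µM Klenow-filled double-stranded degenerate DNA library for 30 min at room temperature. Three washes on amylose resin followed capture of the complexes, then proteinase K release of DNA, PCR barcoding and Illumina sequencing. Binding is taken as pooled-replicate reads-per-million enrichment of pull-down relative to input.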

Sequence | binding signal
GATGATTGTTCTCCCAGCTGATGAATTTAGTTTGTCGAGTAAACAAATTTTCCTAATCTTTCTGTTCAAGCGCCATCTAC | 1.63 RPM ratio (pull-down/input)
GATGATTGTTCTCCCAGCTGATGAATTAAGGGGGTCGAGTAAACAAATTTTCCTAATCTTTCTGTTCAAGCGCCATCTAC | 0.848 RPM ratio (pull-down/input)
GATGATTGTTCTCCCAGCTGATGAATTCTCTACCTCGAGTAAACAAATTTTCCTAATCTTTCTGTTCAAGCGCCATCTAC | 0.739 RPM ratio (pull-down/input)
GATGATTGTTCTCCCAGCTGATGAATTTGGACTCTCGAGTAAACAAATTTTCCTAATCTTTCTGTTCAAGCGCCATCTAC | 0.875 RPM ratio (pull-down/input)
GATGATTGTTCTCCCAGCTGATGAATTTCTCCCCTCGAGTAAACAAATTTTCCTAATCTTTCTGTTCAAGCGCCATCTAC | 0.818 RPM ratio (pull-down/input)
GATGATTGTTCTCCCAGCTGATGAATTTGAGAAATCGAGTAAACAAATTTTCCTAATCTTTCTGTTCAAGCGCCATCTAC | 1.03 RPM ratio (pull-down/input)
GATGATTGTTCTCCCAGCTGATGAATTGTGAGTATCGAGTAAACAAATTTTCCTAATCTTTCTGTTCAAGCGCCATCTAC | 1.27 RPM ratio (pull-down/input)
GATGATTGTTCTCCCAGCTGATGAATTTGATTAATCGAGTAAACAAATTTTCCTAATCTTTCTGTTCAAGCGCCATCTAC | 0.986 RPM ratio (pull-down/input)
GATGATTGTTCTCCCAGCTGATGAATTCTATCGTTCGAGTAAACAAATTTTCCTAATCTTTCTGTTCAAGCGCCATCTAC | 0.89 RPM ratio (pull-down/input)
GATGATTGTTCTCCCAGCTGATGAATTAACAGGCTCGAGTAAACAAATTTTCCTAATCTTTCTGTTCAAGCGCCATCTAC | 0.904 RPM ratio (pull-down/input)
GATGATTGTTCTCCCAGCTGATGAATTGTTCGTATCGAGTAAACAAATTTTCCTAATCTTTCTGTTCAAGCGCCATCTAC | 1.24 RPM ratio (pull-down/input)
GATGATTGTTCTCCCAGCTGATGAATTTACGTAGTCGAGTAAACAAATTTTCCTAATCTTTCTGTTCAAGCGCCATCTAC | 1.19 RPM ratio (pull-down/input)
GATGATTGTTCTCCCAGCTGATGAATTTGAAAAATCGAGTAAACAAATTTTCCTAATCTTTCTGTTCAAGCGCCATCTAC | 1.02 RPM ratio (pull-down/input)
GATGATTGTTCTCCCAGCTGATGAATTTATGTCTTCGAGTAAACAAATTTTCCTAATCTTTCTGTTCAAGCGCCATCTAC | 1.31 RPM ratio (pull-down/input)
GATGATTGTTCTCCCAGCTGATGAATTTATAGGGTCGAGTAAACAAATTTTCCTAATCTTTCTGTTCAAGCGCCATCTAC | 0.95 RPM ratio (pull-down/input)
GATGATTGTTCTCCCAGCTGATGAATTCAGACTGTCGAGTAAACAAATTTTCCTAATCTTTCTGTTCAAGCGCCATCTAC | 0.769 RPM ratio (pull-down/input)
GATGATTGTTCTCCCAGCTGATGAATTGCATAGGTCGAGTAAACAAATTTTCCTAATCTTTCTGTTCAAGCGCCATCTAC | 1.02 RPM ratio (pull-down/input)
GATGATTGTTCTCCCAGCTGATGAATTTGTCCTTTCGAGTAAACAAATTTTCCTAATCTTTCTGTTCAAGCGCCATCTAC | 1.08 RPM ratio (pull-down/input)
GATGATTGTTCTCCCAGCTGATGAATTATTATTCTCGAGTAAACAAATTTTCCTAATCTTTCTGTTCAAGCGCCATCTAC | 1.45 RPM ratio (pull-down/input)
GATGATTGTTCTCCCAGCTGATGAATTAGCCCCGTCGAGTAAACAAATTTTCCTAATCTTTCTGTTCAAGCGCCATCTAC | 0.812 RPM ratio (pull-down/input)
GATGATTGTTCTCCCAGCTGATGAATTTTACCCATCGAGTAAACAAATTTTCCTAATCTTTCTGTTCAAGCGCCATCTAC | 0.932 RPM ratio (pull-down/input)

Sequence | binding signal
GATGATTGTTCTCCCAGCTGATGAATTCCGGGATTCGAGTAAACAAATTTTCCTAATCTTTCTGTTCAAGCGCCATCTAC | 0.754 RPM ratio (pull-down/input)
GATGATTGTTCTCCCAGCTGATGAATTCACTACTTCGAGTAAACAAATTTTCCTAATCTTTCTGTTCAAGCGCCATCTAC | 0.901 RPM ratio (pull-down/input)
GATGATTGTTCTCCCAGCTGATGAATTTAATGAGTCGAGTAAACAAATTTTCCTAATCTTTCTGTTCAAGCGCCATCTAC | 0.912 RPM ratio (pull-down/input)
GATGATTGTTCTCCCAGCTGATGAATTACTGTGCTCGAGTAAACAAATTTTCCTAATCTTTCTGTTCAAGCGCCATCTAC | 0.973 RPM ratio (pull-down/input)
GATGATTGTTCTCCCAGCTGATGAATTAATTATTTCGAGTAAACAAATTTTCCTAATCTTTCTGTTCAAGCGCCATCTAC | 1.12 RPM ratio (pull-down/input)
GATGATTGTTCTCCCAGCTGATGAATTGCGTAAATCGAGTAAACAAATTTTCCTAATCTTTCTGTTCAAGCGCCATCTAC | 1.48 RPM ratio (pull-down/input)
GATGATTGTTCTCCCAGCTGATGAATTCTGTTAGTCGAGTAAACAAATTTTCCTAATCTTTCTGTTCAAGCGCCATCTAC | 1.29 RPM ratio (pull-down/input)
GATGATTGTTCTCCCAGCTGATGAATTACATGCGTCGAGTAAACAAATTTTCCTAATCTTTCTGTTCAAGCGCCATCTAC | 1.3 RPM ratio (pull-down/input)
GATGATTGTTCTCCCAGCTGATGAATTAAAGACTTCGAGTAAACAAATTTTCCTAATCTTTCTGTTCAAGCGCCATCTAC | 0.85 RPM ratio (pull-down/input)
GATGATTGTTCTCCCAGCTGATGAATTATCGCGGTCGAGTAAACAAATTTTCCTAATCTTTCTGTTCAAGCGCCATCTAC | 0.917 RPM ratio (pull-down/input)
GATGATTGTTCTCCCAGCTGATGAATTAACTCGCTCGAGTAAACAAATTTTCCTAATCTTTCTGTTCAAGCGCCATCTAC | 0.834 RPM ratio (pull-down/input)
GATGATTGTTCTCCCAGCTGATGAATTAACTGGGTCGAGTAAACAAATTTTCCTAATCTTTCTGTTCAAGCGCCATCTAC | 0.811 RPM ratio (pull-down/input)
GATGATTGTTCTCCCAGCTGATGAATTGTTCATATCGAGTAAACAAATTTTCCTAATCTTTCTGTTCAAGCGCCATCTAC | 1.31 RPM ratio (pull-down/input)
GATGATTGTTCTCCCAGCTGATGAATTTCACTATTCGAGTAAACAAATTTTCCTAATCTTTCTGTTCAAGCGCCATCTAC | 0.88 RPM ratio (pull-down/input)
GATGATTGTTCTCCCAGCTGATGAATTGATGAATTCGAGTAAACAAATTTTCCTAATCTTTCTGTTCAAGCGCCATCTAC | 1.07 RPM ratio (pull-down/input)
GATGATTGTTCTCCCAGCTGATGAATTAAACACCTCGAGTAAACAAATTTTCCTAATCTTTCTGTTCAAGCGCCATCTAC | 1.18 RPM ratio (pull-down/input)
GATGATTGTTCTCCCAGCTGATGAATTGCTGAAGTCGAGTAAACAAATTTTCCTAATCTTTCTGTTCAAGCGCCATCTAC | 0.994 RPM ratio (pull-down/input)
GATGATTGTTCTCCCAGCTGATGAATTTTTAACGTCGAGTAAACAAATTTTCCTAATCTTTCTGTTCAAGCGCCATCTAC | 0.955 RPM ratio (pull-down/input)
GATGATTGTTCTCCCAGCTGATGAATTCATTCCCTCGAGTAAACAAATTTTCCTAATCTTTCTGTTCAAGCGCCATCTAC | 0.873 RPM ratio (pull-down/input)
GATGATTGTTCTCCCAGCTGATGAATTATTCGAATCGAGTAAACAAATTTTCCTAATCTTTCTGTTCAAGCGCCATCTAC | 1.11 RPM ratio (pull-down/input)
GATGATTGTTCTCCCAGCTGATGAATTCTGTCAATCGAGTAAACAAATTTTCCTAATCTTTCTGTTCAAGCGCCATCTAC | 1.21 RPM ratio (pull-down/input)

Sequence | binding signal
GATGATTGTTCTCCCAGCTGATGAATTTCTATCATCGAGTAAACAAATTTTCCTAATCTTTCTGTTCAAGCGCCATCTAC | 1.03 RPM ratio (pull-down/input)
GATGATTGTTCTCCCAGCTGATGAATTCACTAATTCGAGTAAACAAATTTTCCTAATCTTTCTGTTCAAGCGCCATCTAC | 0.938 RPM ratio (pull-down/input)
GATGATTGTTCTCCCAGCTGATGAATTCTGGGGGTCGAGTAAACAAATTTTCCTAATCTTTCTGTTCAAGCGCCATCTAC | 0.685 RPM ratio (pull-down/input)
GATGATTGTTCTCCCAGCTGATGAATTGGCTTCGTCGAGTAAACAAATTTTCCTAATCTTTCTGTTCAAGCGCCATCTAC | 0.868 RPM ratio (pull-down/input)
GATGATTGTTCTCCCAGCTGATGAATTTTGCTGCTCGAGTAAACAAATTTTCCTAATCTTTCTGTTCAAGCGCCATCTAC | 1.03 RPM ratio (pull-down/input)
GATGATTGTTCTCCCAGCTGATGAATTGAGTTCCTCGAGTAAACAAATTTTCCTAATCTTTCTGTTCAAGCGCCATCTAC | 0.817 RPM ratio (pull-down/input)
GATGATTGTTCTCCCAGCTGATGAATTTGTTGGATCGAGTAAACAAATTTTCCTAATCTTTCTGTTCAAGCGCCATCTAC | 1.14 RPM ratio (pull-down/input)
GATGATTGTTCTCCCAGCTGATGAATTTCGGCGTTCGAGTAAACAAATTTTCCTAATCTTTCTGTTCAAGCGCCATCTAC | 0.861 RPM ratio (pull-down/input)
GATGATTGTTCTCCCAGCTGATGAATTCCGAATATCGAGTAAACAAATTTTCCTAATCTTTCTGTTCAAGCGCCATCTAC | 0.932 RPM ratio (pull-down/input)
GATGATTGTTCTCCCAGCTGATGAATTTTGAGGGTCGAGTAAACAAATTTTCCTAATCTTTCTGTTCAAGCGCCATCTAC | 0.774 RPM ratio (pull-down/input)
GATGATTGTTCTCCCAGCTGATGAATTAGGCCAGTCGAGTAAACAAATTTTCCTAATCTTTCTGTTCAAGCGCCATCTAC | 0.868 RPM ratio (pull-down/input)
GATGATTGTTCTCCCAGCTGATGAATTCGGACCCTCGAGTAAACAAATTTTCCTAATCTTTCTGTTCAAGCGCCATCTAC | 0.79 RPM ratio (pull-down/input)
GATGATTGTTCTCCCAGCTGATGAATTCCGTCGGTCGAGTAAACAAATTTTCCTAATCTTTCTGTTCAAGCGCCATCTAC | 0.786 RPM ratio (pull-down/input)
GATGATTGTTCTCCCAGCTGATGAATTCTGGGATTCGAGTAAACAAATTTTCCTAATCTTTCTGTTCAAGCGCCATCTAC | 0.861 RPM ratio (pull-down/input)
GATGATTGTTCTCCCAGCTGATGAATTAGGCGGCTCGAGTAAACAAATTTTCCTAATCTTTCTGTTCAAGCGCCATCTAC | 0.894 RPM ratio (pull-down/input)
GATGATTGTTCTCCCAGCTGATGAATTTTTTACTTCGAGTAAACAAATTTTCCTAATCTTTCTGTTCAAGCGCCATCTAC | 1.05 RPM ratio (pull-down/input)
GATGATTGTTCTCCCAGCTGATGAATTCAACAGTTCGAGTAAACAAATTTTCCTAATCTTTCTGTTCAAGCGCCATCTAC | 0.932 RPM ratio (pull-down/input)
GATGATTGTTCTCCCAGCTGATGAATTTACCTACTCGAGTAAACAAATTTTCCTAATCTTTCTGTTCAAGCGCCATCTAC | 1.24 RPM ratio (pull-down/input)
GATGATTGTTCTCCCAGCTGATGAATTATGTGTCTCGAGTAAACAAATTTTCCTAATCTTTCTGTTCAAGCGCCATCTAC | 1.07 RPM ratio (pull-down/input)
GATGATTGTTCTCCCAGCTGATGAATTGCTCAATTCGAGTAAACAAATTTTCCTAATCTTTCTGTTCAAGCGCCATCTAC | 1.19 RPM ratio (pull-down/input)
GATGATTGTTCTCCCAGCTGATGAATTTAGCGCTTCGAGTAAACAAATTTTCCTAATCTTTCTGTTCAAGCGCCATCTAC | 0.889 RPM ratio (pull-down/input)
